# Measured values from PMC4336329 (PLoS ONE, 2015).
# In all, about 310,000 compounds went through this assay and about 2,200 (0.71%) showed an effect of 50% or more. The effect is printed as a negative number. Some of the results follow.
# Target: human ether-à-go-go-related gene (hERG) potassium channel (human, UniProt Q12809)
# Experiment: primary screen, population patch clamp on CHO cells stably expressing hERG
# Chain of human ether-à-go-go-related gene (hERG) potassium channel (Q12809 whole entry, looked up): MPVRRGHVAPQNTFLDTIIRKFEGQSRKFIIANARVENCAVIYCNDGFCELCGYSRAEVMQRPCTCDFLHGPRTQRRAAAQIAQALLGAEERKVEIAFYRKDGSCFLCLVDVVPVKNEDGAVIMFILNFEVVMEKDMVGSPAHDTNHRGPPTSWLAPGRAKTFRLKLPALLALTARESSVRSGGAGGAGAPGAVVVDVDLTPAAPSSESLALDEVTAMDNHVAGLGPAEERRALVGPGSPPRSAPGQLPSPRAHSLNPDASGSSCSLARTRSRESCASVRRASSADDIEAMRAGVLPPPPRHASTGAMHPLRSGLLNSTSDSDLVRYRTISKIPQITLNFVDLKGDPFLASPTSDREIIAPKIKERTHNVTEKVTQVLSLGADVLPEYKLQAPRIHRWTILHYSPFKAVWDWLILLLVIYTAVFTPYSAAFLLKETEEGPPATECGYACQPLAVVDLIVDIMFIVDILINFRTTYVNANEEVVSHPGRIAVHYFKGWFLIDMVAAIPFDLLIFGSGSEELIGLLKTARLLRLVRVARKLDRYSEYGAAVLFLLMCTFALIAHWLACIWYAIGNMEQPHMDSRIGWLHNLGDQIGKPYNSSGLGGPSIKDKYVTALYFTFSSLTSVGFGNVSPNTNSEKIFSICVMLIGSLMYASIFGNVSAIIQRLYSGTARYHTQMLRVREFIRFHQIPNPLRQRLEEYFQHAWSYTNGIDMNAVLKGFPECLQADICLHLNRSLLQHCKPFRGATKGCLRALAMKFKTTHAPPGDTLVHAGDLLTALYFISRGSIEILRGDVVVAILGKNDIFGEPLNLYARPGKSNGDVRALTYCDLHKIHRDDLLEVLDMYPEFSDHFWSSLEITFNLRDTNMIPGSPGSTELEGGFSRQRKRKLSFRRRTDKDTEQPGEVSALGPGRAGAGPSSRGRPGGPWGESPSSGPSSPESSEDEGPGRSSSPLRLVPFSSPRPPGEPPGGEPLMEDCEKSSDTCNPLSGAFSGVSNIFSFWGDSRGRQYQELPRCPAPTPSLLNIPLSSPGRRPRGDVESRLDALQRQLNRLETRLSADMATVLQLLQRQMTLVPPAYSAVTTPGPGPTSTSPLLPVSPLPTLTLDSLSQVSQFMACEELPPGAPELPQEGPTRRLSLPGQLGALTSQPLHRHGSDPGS
row,SMILES,"hERG current change (%, negative = inhibition) at 1uM"
1,CCC(Sc1nncn1C)C(=O)Nc1nnc(-c2ccc(Cl)cc2)s1 (stereo not shown),12%
2,COc1cccc(NC(=O)c2ccccc2Br)c1,11%
3,Cc1nnc(SC(C)C(=O)NC2CCCCC2C)n1N (stereo not shown),11.1%
4,CCCOC(=O)c1ccc(NC(=O)C(=O)NCC2CCCO2)cc1 (stereo not shown),14%
5,CCOC(=O)c1sc(NC(=O)c2ccc(S(=O)(=O)N3CCCCCC3)cc2)nc1-c1ccccc1,11%
6,CCOc1ccc(NC(=S)NCc2ccc3c(c2)OCO3)cc1,10.6%
7,COc1ccc(N2C(=O)CC(Sc3nc4ccccc4s3)C2=O)cc1 (stereo not shown),5.76%
8,Cc1ccc(-n2ncc3c(N4CCCC(C)C4)ncnc32)c(C)c1 (stereo not shown),7.5%
9,CCOC(=O)COc1ccc(C2CC(C)=NN2c2ccccc2)cc1 (stereo not shown),8.65%
10,COc1cc(/C=N/O)ccc1Oc1cnccn1,13%
11,CCc1nnc(NC(=O)CCC(=O)N2CCN(Cc3cc(Cl)ccc3OC)CC2)s1,15.4%
12,O=S1(=O)CCN2C(=N1)SC1=C2CCN(Cc2ccccc2)C1,13.2%
13,Cl.N=c1n(CCCOc2ccc(Br)cc2)c2ccccc2n1CC(N)=O,6.86%
14,Cc1ccc(C)c(S(=O)(=O)N2CCN(c3nc(CN4CCOCC4)nc4sc(C)c(C)c34)CC2)c1,-7.69%
15,CCCc1nn2c(=O)cc(CSCC(=O)Nc3cccc(C)c3)nc2s1,11.5%
16,CC1CC(C)CN(C(=O)c2cn(C)c3ccc(S(=O)(=O)N(C)C)cc3c2=O)C1 (stereo not shown),6.66%
17,Cn1c(C=O)c(-c2ccc3c(c2)OCCO3)c2ccccc21,13.4%
18,Cc1cc(NC(=O)CSc2nnc(NC(=O)C3CC(=O)N(c4ccccc4)C3)s2)no1 (stereo not shown),5.28%
19,CC(NC(=O)C1CCN(S(=O)(=O)c2cnc[nH]2)CC1)c1ccccc1 (stereo not shown),5.83%
20,CCC(=Nc1ccc(N)cc1)C1=C(O)C(C(=O)OC)C(C)(C)CC1=O (stereo not shown),23.8%
21,COc1ccc(C2=NOC(C(=O)Nc3cc(Br)ccc3O)C2)cc1OC (stereo not shown),18.7%
22,COc1cccc2cc(C(=O)C3=C(O)C(=O)N(CCN(C)C)C3c3ccc(Cl)cc3)oc12 (stereo not shown),6.72%
23,O=C(NCCc1ccccc1)C(=O)c1c[nH]c2ccccc12,8.35%
24,COc1ccccc1-c1c(C(F)(F)F)oc2cc(OC(=O)c3ccc([N+](=O)[O-])cc3)ccc2c1=O,12.8%
25,CN(C)c1ccc(N=Cc2nc(-c3ccccc3)oc2OC(=O)c2cccc(Cl)c2)cc1,18.1%
26,CCCC[N+]1(C)[C@@H]2CC(OC(=O)[C@H](CO)c3ccccc3)C[C@H]1[C@@H]1O[C@@H]12.[Br-] (stereo partly shown),7.66%
27,CCOC(=O)C(NCCOC)(NC(C)=O)C(F)(F)F (stereo not shown),9.23%
28,Cc1ccc(NC(=O)CN(C)S(=O)(=O)c2cccc3cccnc23)c(C)c1,10.3%

row,SMILES,"hERG current change (%, negative = inhibition) at 1uM"
1,CCCn1c(OC)nc2c1c(=O)n(C)c(=O)n2C,6.95%
2,O=C(CS(=O)(=O)c1ccccc1)NC1CCCCC1,11.1%
3,CC(=O)c1sc(NC(=O)CSCc2c(C)noc2C)nc1-c1ccccc1,7.09%
4,COc1ccccc1-n1c(C)nc2cc(C(=O)NCCN3CCOCC3)ccc21,15.3%
5,O=C(NCCN1CCOCC1)c1ccc2c(c1)ncn2C1CCCC1,-1.57%
6,CCc1ccc(-c2ccc3nnc(SCC(N)=O)n3n2)cc1,22.5%
7,Cc1nc2nc(-c3ccccc3)[nH]n2c(=O)c1Cc1ccccc1,5.86%
8,CCOc1ccccc1CN1CCN(CCCn2cccn2)CC1CCO (stereo not shown),-28.6%
9,Cn1c(CNC(=O)OC(C)(C)C)nnc1SCc1c(Cl)cccc1Cl,13.5%
10,COc1ccc(CN2CCN(CC(=O)Nc3ccccc3C(=O)NC3CC3)CC2)cc1F,-99.6%
11,Cc1cc(C)cc(N(CCC#N)C(=O)CSC2=Nc3ccccc3C3CC=NN23)c1 (stereo not shown),9.85%
12,CCCNC(=O)c1ccc(N2CCC3(CC2)CC(c2cccc(Br)c2)=NO3)c(NC(=O)c2ccccc2)c1,7.25%
13,O=C(Nc1nc(-c2ccccc2)cs1)c1cccc(S(=O)(=O)N2CCN(Cc3ccccc3)CC2)c1,11.7%
14,CC(C)N(Cc1ccccc1)C(=S)Nc1ccc(OC(F)F)cc1,1.45%
15,CC(=O)Nc1nnc(C)s1,7.59%
16,CC1(c2ccccc2)NC(=O)N(CC(=O)N2CCN(S(=O)(=O)c3cccc([N+](=O)[O-])c3)CC2)C1=O (stereo not shown),10.9%
17,O=S(=O)(c1ccc(-c2cnc(C3CC3)o2)cc1)N1CCN(c2ccccc2)CC1,13.4%
18,CCCC(NCC(O)COc1ccc(-c2ccccc2)cc1)c1ccccc1 (stereo not shown),10.3%
19,CC(C)COC(=O)c1ccc(NC(=O)C2C3C=CC(C3)C2C(=O)O)cc1 (stereo not shown),-0.843%
20,O=C(Nc1ccccc1)N1C(=O)C2(OCCO2)c2ccccc21,18.3%
21,COc1ccc(OC)c(-c2cc(C(=O)N/N=C/c3ccc(F)cc3)c3ccccc3n2)c1,12.3%
22,CC(C)(C)C(=O)Nc1ccc(-c2nnc3n2CCCCC3)cc1,17.7%
23,Cc1nn(CC(=O)N(C)C2(C#N)CCCCC2)c(C)c1[N+](=O)[O-],3.7%
24,O=C(COC(=O)c1ccccn1)Nc1ccccc1OC(F)F,12.3%
25,COc1cc([N+](=O)[O-])ccc1-c1ccc(/C=N\n2cnnc2)o1,13.2%
26,CC(=O)Nc1ccc(S(=O)(=O)N2CCN(S(=O)(=O)N3CCOCC3)CC2)cc1,5%
27,CS(=O)(=O)N(CC(=O)Nc1cccc(F)c1)c1cccc([N+](=O)[O-])c1,3.13%
